Measurements from publication PMC10726135.
Some of the results follow. At the low end of the ranking, values are background and their order means little. The protein was read in a cell extract, so binding may be indirect.

These sequences were tested against T1, HNF4alpha8 (COS-7 nuclear extract) (UniProt P41235-5) (assay: protein-binding microarray). Conditions: COS-7 nuclear extract on double-stranded Agilent 4x180k PBM; binding buffer, salt, pH and temperature not given; high values mean tight binding; double strand, one strand shown; sequences stand for … in …GCCTAGGGAGATTAGAGTATCGGTCGA.
T1 sequence: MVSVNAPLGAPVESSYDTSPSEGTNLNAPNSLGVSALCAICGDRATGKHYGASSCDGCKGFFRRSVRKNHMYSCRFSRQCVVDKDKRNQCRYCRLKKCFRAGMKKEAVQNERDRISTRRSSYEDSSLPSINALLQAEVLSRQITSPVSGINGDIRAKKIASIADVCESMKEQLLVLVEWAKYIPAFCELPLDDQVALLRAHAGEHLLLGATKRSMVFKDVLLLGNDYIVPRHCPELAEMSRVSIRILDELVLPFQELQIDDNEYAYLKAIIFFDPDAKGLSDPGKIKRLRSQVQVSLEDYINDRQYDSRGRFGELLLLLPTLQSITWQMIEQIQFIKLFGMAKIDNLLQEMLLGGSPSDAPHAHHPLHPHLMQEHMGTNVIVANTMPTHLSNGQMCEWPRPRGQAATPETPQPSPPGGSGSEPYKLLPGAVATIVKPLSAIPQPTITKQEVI

Row | Sequence | binding signal (log2 normalized intensity)
1 | AGGGGTAGAAGCTGAGCAGCAATCAGCTCC | -1.24
2 | CCCAGGCAATCTTCCAGTCCACAGTCCAGT | 2.1
3 | AGGCAGGGACTGAGGAATCTGGCTGTGCTG | -1.3
4 | AGAACAGTCTGTGACTTGATCTTTGACTGG | 4.27
5 | TGAAATCTAATCTCTGTAACATTCCTAGAT | -1.44
6 | CTGAGAGAGCAGGGCCCGAGGCCTTGAGCA | -1.4
7 | TTTCAAGGTGACCCCACGGAGCTGCCTCAC | 2.75
8 | GCATTTCACAATAGGGTTCAAACTCCTATG | 2.89
9 | TAATCTGACTTGACAGGTTTCTTGCTGAAG | -1.35
10 | TCTAATCTCTGTAACATTCCTAGATATCAG | -0.796
11 | TAAGCAATCCCTTAGGCTTTTGCACTTTAC | 3.39
12 | ATCACACTACTGGCTTTTCTGGTTCTCCAG | -1.44
13 | TTCAGGCAGGAATGCTGAACAATTGATTTA | -0.858
14 | ACACTGACATCATCGCAGAAAGCTCTTTGC | -1.25
15 | TAGAATGACCCCCTGGGCTCCAATCAGGAG | 3.28
16 | ATGAAAGTATCCAGCTCCTCTTCACACCAT | -1.1
17 | TTAAGTGGTTCACAAACATTCCAGTGGTCC | 1.26
18 | TGTGTGTGTGTCTGTAGTTTTCGTTGTCTA | 2.21
19 | GGCCGGGGTGGTGGTTACCGGCAGAGGCTG | -0.249
20 | CATTGTGTTAAAGGAATTCAGGACTTGGTA | 0.455
21 | GCTGTCAGCCACCAAAGCAGCTAGCAAATA | -1.35
22 | GTTATCTAATGGAGAGGATGGGGACAAAGG | 2.55
23 | TAGTAGCCCTTTGTATCTTTTAAGATACAC | 1.04
24 | AGGGGTCACCTCGCTCCCCTCCTGTCAGTT | 1.87
25 | TCAGCTGGGCTCGGCGCTCCGCTTACTCGG | -1.25

Row | Sequence | binding signal (log2 normalized intensity)
26 | AAGACAGGGGCTATTTCTGACCTTTGCACC | 10.2
27 | GACCCCCTACATAGAGAGCAGTCTTGAGCG | 1.99
28 | CAAGTCCAGCGAGGTTATTTCACCCCAGCA | 1.89
29 | TACATGGCCTGCATGACTACATTCTTTGAA | -0.459
30 | AACTCTATCATACTCAGCTAATCTAGAGAC | -1.33
31 | TGTATTTCGGGGCACTGCTCCCTGCCCCTA | 3.09
32 | CAAGGTGGTGAAGATGTCCTGTAGAAAGCG | -1.28
33 | GTTTTGTAAACTCCCTTTGATGCGGTCAGA | 1.37
34 | TCCTTATCCTCATTGTGTGCAGACCTTCTC | 1.94
35 | GGCTGATAAGACACATTCCATGCTTATCAG | -1.16
36 | ACTGAGATGGGAGCAGTGCTCAGATAAGAT | -1.27
37 | CGCTGGACTCTGCTCCTAAGGCAGGATTGG | 2.01
38 | CCTTCCGACCACTGGCTGAACAGGGTCAGT | 2.71
39 | AGTTAACTCACACACCCCAAAAGGTCAATC | 4.56
40 | ATATGAACTTTGGAAATGCAAACACCTACA | -1.08
41 | TGGCACCTGAAGCTGCCCTTTGCACATGCC | 5.02
42 | CACTTACAAGTGTACAAAGGTCACTTCTGT | 7.03
43 | TGAGGTCGGGGCCTGGTCTGCACTCCAGGA | -1.38
44 | AAAGGACATTGTCCATCACCTGGCTCTGAA | -1.18
45 | GATGGAGATGGCCTGGAGGTACCTAGGGGA | -1.51
46 | TCCTAGGGTTAAAGTCTACAACCAGAACTT | 3.36
47 | CTTTGCTCTCTGAAATGAAGGTCAGCAAAT | 1.05
48 | CCTGTCAGTTTATTTACTGTCCTCAAACTG | 0.601
49 | GCCTGGGGTAAAACCAAACTGCAGCTGCTG | -1.14
50 | AAGTTCAGTGAGATTAGGAAGTGTGCACAA | 0.32

Row | Sequence | binding signal (log2 normalized intensity)
51 | AGCCCCTTTGTCCATTATCTCACTTATTTG | 1.36
52 | TAAACCAGCCTAACAGGATTTTTGCTGAAG | -1.28
53 | AGAAGCCTCTGGACAAGGGAAGCGTCAATG | -1.37
54 | GAACCAAGATCTGTGAAAGAAAAGTACTTT | 1.75
55 | GGCAAAGGGCATGGGCAGCTTTGAAGACTC | -1.5
56 | GGGCACCGCCTCCACACCCCAGCCTGCCCT | 2.63
57 | TTACTTTTGTACACACAGCACTGCAAACAG | -1.37
58 | ATCAATCAATTTACCTCTGCTCCCCCTGCC | 4.41
59 | AACTGAGGAGGACATACTCCTACCACCAAA | -1.43
60 | GTGTCCCTCTTATACTCTCTCTCTCTCGTT | 0.592
61 | CAAAGTACAGTAATTTCACTGATATGGTGA | 1.48
62 | TCCTTGACCCTGAAAACAGGGCAAGGAACG | 1.3
63 | GGATTGATAGACTTATCTCAGCCTGGCTAA | -1.3
64 | TCTTTCTCCCAGAGGTCGATCTGATCTTAA | 2.09
65 | AATGGAGGAGTTCAGCAGCATCTAAACTCT | -1.37
66 | CAAGGACTCTAAAGGGAATAACCTTTGAGC | 6.76
67 | TATGACAACAAAGCATTATCTACACAGTAA | -1.32
68 | AGTTCCCATTTGCGCTGGTTTTATGGTGTC | 1.94
69 | ATGTGCCAGACACTGCTCTAGGCATTGGAG | -1.35
70 | GCTTGGGAGCAGTCCTTGGGGAAGGGGTAC | -0.338
71 | CAAGGACTTTGAAGGCCCCAATTGCCAAGG | -1.3
72 | TGAGTGTTTGACCTTTCACCCAGAAAAGGC | 6.35
73 | GTTGCACCTCTTATCAAGCGTGCACCCCAG | 2.15
